Laboratory results: the supplement of paper PMC12217912
The list shows a part of the results. Sequences were assembled here from the parent chain. Inactive controls read about 0.05.

B1: TEV protease; numbered along this chain (parent)
chain: MGESLFKGPRDYNPISSSICHLTNESDGHTTSLYGIGFGPFIITNKHLFRRNNGTLVVQSLHGVFKVKDTTTLQQHLVDGRDMIIIRMPKDFPPFPQKLKFREPQREERICLVTTNFQTKSMSSMVSDTSCTFPSGDGIFWKHWIQTKDGQCGSPLVSTRDGFIVGIHSASNFTNTNNYFTSVPKNFMELLTNQEAQQWVSGWRLNADSVLWGGHKVFMVKPEEPFQPVKEATQL

Variants of: B1
Experiment: raw area under fraction-flipped curve 0-4 h after induction (AUC4h, not background-subtracted), DNA-recorder readout of cleavage of the substrate (dimensionless); higher = more cleavage of the substrate by the protease variant
Conditions: temperature: 34 °C; time window: 0-4 h after rhamnose induction
Protocol: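 In vivo DNA recorder in E. coli TOP10(DE3) ΔrhaA at 34 °C. Each TEVp single-site mutant (parent TEVp 0) is paired with a single-site variant of the 7-mer TEVs (canonical ENLYFQ|S). The substrate sits between flexible linkers in a Bxb1-sfGFP-TEVs-SsrA fusion, so cleavage stabilises Bxb1 and speeds flipping of a recombination array, read by NGS. The value is the raw area under the fraction-flipped curve over 0-4 h after rhamnose induction (AUC4h), with ≥20 reads per time point. It is not background-subtracted; inactive controls average about 0.047.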
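Note: Bxb1 expression induced with 0.2% (w/v) L-rhamnose at OD600 near 0.5, cultures sampled hourly, flipped fraction per protease–substrate barcode pair counted by paired-end Illumina sequencing.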

Variant	area with substrate ENLYDQS	area with substrate ENLYEQS	area with substrate ENLYGQS	area with substrate ENLYHQS	area with substrate ENLYIQS	area with substrate ENLYKQS	area with substrate ENLYPQS	area with substrate ENLYVQS	area with substrate ENLYWQS	area with substrate ENLYYQS	area with substrate ENLYLQS	area with substrate ENLYNQS	area with substrate ENLYMQS	area with substrate ENLYQQS	area with substrate ENLYSQS	area with substrate ENLYTQS	area with substrate ENLYRQS
F95I	0.0537	0.08	0.0613	0.0796	0.0827	0.052	0.0496	0.103	0.0728	0.0322							
P96I	0.0577	0.0562			0.104	0.0365	0.0685	0.113		0.0584	0.0693	0.0582					
K98D	0.0619	0.0794	0.0582	0.074	0.133	0.064	0.0772	0.128	0.0859	0.0682		0.0566	0.0989	0.0595	0.0873	0.0769	
E103R	0.0463	0.0629	0.0673	0.0582	0.101	0.0601	0.0566	0.102				0.0694	0.105		0.0641		0.0568
Q105P	0.0395	0.0519	0.048		0.0399	0.0207	0.0454	0.0514	0.0561			0.0539	0.0468	0.0477			0.0526
Q105S	0.0672	0.0704	0.0648	0.0834		0.0657			0.0631	0.0695	0.0967	0.0719	0.0803			0.0817	0.0603
R106V	0.0643	0.0803	0.0413	0.066	0.113	0.0545	0.0835		0.0724	0.0725	0.0827	0.0954		0.0663	0.0925		0.0337
E108F	0.0782	0.0625	0.0553				0.0503			0.069					0.0676		0.0619
C111G	0.0338	0.0775				0.0495		0.133		0.0686	0.114	0.0611	0.0871				
C111P	0.05	0.055		0.0556	0.061	0.0559			0.0901			0.0506		0.0488			0.0585
T115L	0.07		0.0694	0.0511	0.109		0.0927		0.0848		0.0901	0.0237	0.0998			0.0949	0.0488
F117C	0.0477	0.0697	0.0654	0.0748	0.0418	0.0592		0.102	0.0816	0.068		0.0367	0.0726		0.0769	0.0743	0.0505
Q118R	0.0546	0.0626	0.0624	0.0582	0.131	0.0632	0.0684	0.126				0.0838	0.102	0.0502	0.083		0.0641
T119D	0.0603	0.0652		0.0654			0.0812	0.123	0.105		0.0897	0.0648			0.0835	0.0745	
K120S	0.066	0.0676	0.0604	0.0704	0.109	0.041	0.067	0.133	0.0792			0.0785	0.0867	0.0502	0.0737		0.0433
S123C	0.0558	0.0612	0.0662	0.0667	0.111	0.0439	0.0732	0.087	0.0817	0.0596		0.0886	0.103	0.0649			0.053
S124H	0.081	0.0618	0.0836		0.135	0.0583			0.0967	0.059			0.0894	0.0677		0.074	
M125A	0.0577			0.0787			0.0644	0.129				0.0655	0.0779	0.0591	0.0719		
M125G	0.0693	0.0664		0.074		0.0589	0.0902	0.129	0.0798			0.0646		0.0706			
S127C	0.0577	0.104	0.0714	0.0719		0.0579	0.0729	0.129		0.0718	0.0918	0.0684		0.0665	0.0602		0.0533
T129N	0.066	0.0657	0.0775	0.0545	0.205	0.0448	0.102	0.156	0.0796			0.0664	0.0775	0.0702			0.0553
C131V	0.0615	0.0648			0.106			0.0389					0.107				0.0354
F133A	0.0592	0.0626			0.119	0.0632	0.0668		0.0912		0.0901	0.0728	0.0853	0.0665			0.0618
F133R	0.0662	0.0773	0.0678	0.0704	0.15	0.077	0.0808		0.0936	0.0591		0.0562	0.0985	0.0589	0.0856	0.104	0.0685
G138K	0.0616	0.0754	0.0622	0.0755	0.104	0.0696		0.0999	0.0567			0.0644	0.0673		0.0726	0.0901	
W141E	0.0516			0.0584	0.0621	0.0306	0.0603		0.0535				0.0555	0.0503	0.0481	0.0361	0.0502
Q146A	0.0417	0.0759	0.0501		0.158		0.0808	0.101	0.103		0.0765		0.0938		0.0823		0.0679
Q146H	0.063	0.0727		0.0791	0.13	0.0615	0.0764	0.122	0.077			0.0706	0.061	0.0625	0.0719		
Q146W	0.0686	0.0698	0.0723	0.0944			0.0904			0.0598			0.128	0.0586	0.105	0.11	0.0505
K148H	0.0681	0.0717	0.0577	0.0714		0.056	0.0692	0.0992		0.059	0.0786		0.0881	0.0321	0.0612	0.0662	0.0637
